Source: the supplement of paper PMC12355420
“And” between values parts separate entries of the source, which are not always exact repeats. Identical values can stand only once. Counter-ions that a name gives are not always drawn. This is one part of the list. Rule as the data show it: active = 0.5 or less and inactive = the rest. Most values come without repeats; read them as rough.

Experiments:
Conditions in all cases: 50 µM; 24 h
[1] = system: HeLa VPS33A reporter cells; experiment: relative cell viability (CellMask signal) vs DMSO (fraction of DMSO); higher = less cytotoxic;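 also: primary screen of an FDA-approved drug library in HeLa reporter cells in 96-well format, CellMask signal normalized to DMSO-treated wells set as 1, under 0.5 deemed highly cytotoxic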
[2] = system: HeLa VPS33A R498W KI + HA-SDC1-FLAG; experiment: relative GAG core protein HA-SDC1 amount per cell number vs DMSO (fraction of DMSO); higher = more SDC1 (GAG core protein);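 also: HA-SDC1 level read out by In-Cell Western staining with an anti-HA antibody against the N-terminal tag, screening FDA-approved library drugs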
[3] = system: HeLa VPS33A KO + NLuc-VPS33A R498W; experiment: relative mutant VPS33A R498W amount (NanoLuc luminescence) vs DMSO (fraction of DMSO); HeLa model of a glycosaminoglycan (GAG) storage disease; KI is knock-in and KO knock-out; SDC1 is syndecan 1; higher = higher mutant VPS33A level;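 also: screen of an FDA-approved drug library, NanoLuc luminescence read after lysing the treated cells, taken as a measure of mutant VPS33A protein stability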

Row | Compound | relative cell viability [1] | relative GAG core protein HA-SDC1 amount per cell number [2] | relative mutant VPS33A R498W amount [3]
1 | C#C[C@]1(O)CC[C@H]2[C@@H]3CCC4=CC(=O)CC[C@@H]4[C@H]3CC[C@@]21C [Norethindrone] | 0.93 | inactive: 0.887 | 1.16
2 | CN(C)CCC(c1ccccc1)c1ccccn1 (stereo not given) [Pheniramine Maleate] | 0.839 | inactive: 1.08 | 1.26
3 | O=C[C@H](O)[C@@H](O)[C@H](O)CO [Xylose] | 0.94 | inactive: 0.882 | 1.48
4 | CS(=O)(=O)c1ccc([C@@H](O)[C@@H](CF)NC(=O)C(Cl)Cl)cc1 [Florfenicol] | 0.904 | inactive: 0.958 | 1.04
5 | CN(C)CCc1c[nH]c2ccc(Cn3cncn3)cc12 [Rizatriptan Benzoate] | 1.12 | inactive: 0.945 | 0.799
6 | C[C@@H]1O[C@@H](Oc2c(-c3ccc(O)c(O)c3)oc3cc(O)cc(O)c3c2=O)[C@H](O)[C@H](O)[C@H]1O [Quercitrin] | 1.06 | inactive: 0.97 | 1.27
7 | O=C1c2ccccc2C(=O)C1c1ccccc1 [Phenindione] | 0.854 | inactive: 0.885 | 1.23
8 | C[C@]12CC[C@H](O)CC1=CC[C@@H]1[C@@H]2CC[C@]2(C)C(n3cnc4ccccc43)=CC[C@@H]12 | 1.34 | inactive: 1.08 | 0.605
9 | OCCOc1ccc(/C(=C(/CCCl)c2ccccc2)c2ccccc2)cc1 [Ospemifene] | 1.36 | inactive: 0.578 | 0.628
10 | CCOC(=O)[C@H](CCc1ccccc1)N[C@@H](C)C(=O)N1[C@H](C(=O)O)C[C@@H]2CCC[C@@H]21 [Ramipril] | 1.06 | inactive: 0.838 | 1.34
11 | C[C@H]1C[C@H]2[C@@H]3CCC4=CC(=O)C=C[C@]4(C)[C@@]3(F)[C@@H](O)C[C@]2(C)[C@@]1(O)C(=O)CO [Betamethasone] | 0.991 | inactive: 1.07 | 1.1
12 | Clc1ccc(CCCOCCCN2CCCCC2)cc1 [Pitolisant hydrochloride] | 0.938 | inactive: 1 | 0.533
13 | Cc1ccc(Nc2nccc(N(C)c3ccc4c(C)n(C)nc4c3)n2)cc1S(N)(=O)=O [Pazopanib Hydrochloride] | 1.46 | inactive: 1.32 | 0.52
14 | C[C@@H]1CCO[C@H]2Cn3cc(C(=O)NCc4ccc(F)cc4F)c(=O)c(O)c3C(=O)N12 | 1.1 and 1.06 | inactive: 0.9 and inactive: 0.76 | 0.754 and 0.878
15 | CN(C)C(=O)COC(=O)Cc1ccc(OC(=O)c2ccc(NC(=N)N)cc2)cc1 [Camostat Mesilate] | 0.981 | inactive: 0.948 | 1.91
16 | O=C(O)c1cc(-c2ccccc2)nc2ccccc12 [Cinchophen] | 1.07 | inactive: 0.947 | 1.21
17 | O=C(NCC1CCCCN1)c1cc(OCC(F)(F)F)ccc1OCC(F)(F)F (stereo not given) [Flecainide acetate] | 1.16 | inactive: 0.997 | 0.783
18 | Nc1c(CC(=O)O)cccc1C(=O)c1ccc(Br)cc1 [Bromfenac Sodium] | 1.01 | inactive: 1.26 | 1.14
19 | CCCCNc1ccc(C(=O)OCCN(C)C)cc1 [Tetracaine HCl] | 1.23 | inactive: 1.03 | 1.11
20 | CC1(C)S[C@@H]2[C@H](NC(=O)[C@H](C(=O)O)c3ccsc3)C(=O)N2[C@H]1C(=O)O [Ticarcillin sodium] | 1.16 | inactive: 0.698 | 1.25
21 | CC1(C)[C@@H](O)CC[C@]2(C)[C@H]3C(=O)C=C4[C@@H]5C[C@@](C)(C(=O)O)CC[C@]5(C)CC[C@@]4(C)[C@]3(C)CC[C@@H]12 [Enoxolone] | 1.07 | inactive: 0.892 | 1.35
22 | C[C@]12CCC3=C4CCC(=O)C=C4CC[C@H]3[C@@H]1CC[C@@]2(O)CC#N [Dienogest] | 1.03 | inactive: 0.899 | 1.22
23 | COCCCOc1ccnc(C[S+]([O-])c2nc3ccccc3[nH]2)c1C (stereo not given) [Rabeprazole sodium] | 1.01 | inactive: 0.875 | 1.25
24 | NC(=O)C[C@H](N)C(=O)O [L-Asparagine] | 1 | inactive: 0.95 | 1.14
25 | CCCNC(C)C(=O)Nc1ccccc1C (stereo not given) [Prilocaine] | 1.04 | inactive: 0.84 | 1.42
26 | OCc1ccccc1 [Benzyl alcohol] | 0.99 | inactive: 0.85 | 1.15
27 | COc1ccc(-c2ccc3cc(C(=O)O)ccc3c2)cc1C12CC3CC(CC(C3)C1)C2 [Adapalene] | 1.24 | inactive: 1.07 | 1.08
28 | O=C(/C=C/C=C/c1ccc2c(c1)OCO2)N1CCCCC1 [Piperine] | 1.01 | inactive: 0.736 | 0.72
29 | COc1ccc(-c2cc(=O)c3c(O)cc(O)cc3o2)cc1O [Diosmetin] | 1.11 | inactive: 0.592 | 0.944
30 | CC(=O)OCC(=O)[C@@]12N=C(C)O[C@@H]1C[C@H]1[C@@H]3CCC4=CC(=O)C=C[C@]4(C)[C@H]3[C@@H](O)C[C@@]12C [Deflazacort] | 1.06 | inactive: 0.897 | 1.05
